Here are results for eight substances from paper PMC7217878.

Chains of the proteins cited; added tags and fusions are not shown.
UniProt P09104: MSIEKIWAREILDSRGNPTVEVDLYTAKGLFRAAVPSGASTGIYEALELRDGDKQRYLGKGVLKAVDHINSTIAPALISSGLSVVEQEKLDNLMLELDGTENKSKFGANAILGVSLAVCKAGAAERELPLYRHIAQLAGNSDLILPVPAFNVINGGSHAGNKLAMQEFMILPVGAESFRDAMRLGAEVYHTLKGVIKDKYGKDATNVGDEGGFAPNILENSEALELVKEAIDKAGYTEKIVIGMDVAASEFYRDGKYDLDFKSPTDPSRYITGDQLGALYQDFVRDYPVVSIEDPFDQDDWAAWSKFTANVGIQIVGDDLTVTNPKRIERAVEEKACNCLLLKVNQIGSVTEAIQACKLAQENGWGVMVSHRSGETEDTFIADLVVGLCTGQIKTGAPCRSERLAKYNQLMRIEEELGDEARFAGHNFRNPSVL
UniProt O15379: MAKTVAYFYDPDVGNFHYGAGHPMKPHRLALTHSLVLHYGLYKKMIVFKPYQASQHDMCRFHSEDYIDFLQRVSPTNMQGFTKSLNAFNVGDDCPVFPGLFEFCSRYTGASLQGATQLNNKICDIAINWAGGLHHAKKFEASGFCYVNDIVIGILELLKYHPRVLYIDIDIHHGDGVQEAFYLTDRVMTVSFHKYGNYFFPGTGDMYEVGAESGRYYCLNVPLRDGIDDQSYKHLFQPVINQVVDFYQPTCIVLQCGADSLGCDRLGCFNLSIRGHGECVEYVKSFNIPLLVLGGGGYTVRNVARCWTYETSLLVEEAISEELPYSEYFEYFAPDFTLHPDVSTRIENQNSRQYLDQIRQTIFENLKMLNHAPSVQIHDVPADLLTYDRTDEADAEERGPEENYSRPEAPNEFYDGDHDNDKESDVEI
UniProt Q92793: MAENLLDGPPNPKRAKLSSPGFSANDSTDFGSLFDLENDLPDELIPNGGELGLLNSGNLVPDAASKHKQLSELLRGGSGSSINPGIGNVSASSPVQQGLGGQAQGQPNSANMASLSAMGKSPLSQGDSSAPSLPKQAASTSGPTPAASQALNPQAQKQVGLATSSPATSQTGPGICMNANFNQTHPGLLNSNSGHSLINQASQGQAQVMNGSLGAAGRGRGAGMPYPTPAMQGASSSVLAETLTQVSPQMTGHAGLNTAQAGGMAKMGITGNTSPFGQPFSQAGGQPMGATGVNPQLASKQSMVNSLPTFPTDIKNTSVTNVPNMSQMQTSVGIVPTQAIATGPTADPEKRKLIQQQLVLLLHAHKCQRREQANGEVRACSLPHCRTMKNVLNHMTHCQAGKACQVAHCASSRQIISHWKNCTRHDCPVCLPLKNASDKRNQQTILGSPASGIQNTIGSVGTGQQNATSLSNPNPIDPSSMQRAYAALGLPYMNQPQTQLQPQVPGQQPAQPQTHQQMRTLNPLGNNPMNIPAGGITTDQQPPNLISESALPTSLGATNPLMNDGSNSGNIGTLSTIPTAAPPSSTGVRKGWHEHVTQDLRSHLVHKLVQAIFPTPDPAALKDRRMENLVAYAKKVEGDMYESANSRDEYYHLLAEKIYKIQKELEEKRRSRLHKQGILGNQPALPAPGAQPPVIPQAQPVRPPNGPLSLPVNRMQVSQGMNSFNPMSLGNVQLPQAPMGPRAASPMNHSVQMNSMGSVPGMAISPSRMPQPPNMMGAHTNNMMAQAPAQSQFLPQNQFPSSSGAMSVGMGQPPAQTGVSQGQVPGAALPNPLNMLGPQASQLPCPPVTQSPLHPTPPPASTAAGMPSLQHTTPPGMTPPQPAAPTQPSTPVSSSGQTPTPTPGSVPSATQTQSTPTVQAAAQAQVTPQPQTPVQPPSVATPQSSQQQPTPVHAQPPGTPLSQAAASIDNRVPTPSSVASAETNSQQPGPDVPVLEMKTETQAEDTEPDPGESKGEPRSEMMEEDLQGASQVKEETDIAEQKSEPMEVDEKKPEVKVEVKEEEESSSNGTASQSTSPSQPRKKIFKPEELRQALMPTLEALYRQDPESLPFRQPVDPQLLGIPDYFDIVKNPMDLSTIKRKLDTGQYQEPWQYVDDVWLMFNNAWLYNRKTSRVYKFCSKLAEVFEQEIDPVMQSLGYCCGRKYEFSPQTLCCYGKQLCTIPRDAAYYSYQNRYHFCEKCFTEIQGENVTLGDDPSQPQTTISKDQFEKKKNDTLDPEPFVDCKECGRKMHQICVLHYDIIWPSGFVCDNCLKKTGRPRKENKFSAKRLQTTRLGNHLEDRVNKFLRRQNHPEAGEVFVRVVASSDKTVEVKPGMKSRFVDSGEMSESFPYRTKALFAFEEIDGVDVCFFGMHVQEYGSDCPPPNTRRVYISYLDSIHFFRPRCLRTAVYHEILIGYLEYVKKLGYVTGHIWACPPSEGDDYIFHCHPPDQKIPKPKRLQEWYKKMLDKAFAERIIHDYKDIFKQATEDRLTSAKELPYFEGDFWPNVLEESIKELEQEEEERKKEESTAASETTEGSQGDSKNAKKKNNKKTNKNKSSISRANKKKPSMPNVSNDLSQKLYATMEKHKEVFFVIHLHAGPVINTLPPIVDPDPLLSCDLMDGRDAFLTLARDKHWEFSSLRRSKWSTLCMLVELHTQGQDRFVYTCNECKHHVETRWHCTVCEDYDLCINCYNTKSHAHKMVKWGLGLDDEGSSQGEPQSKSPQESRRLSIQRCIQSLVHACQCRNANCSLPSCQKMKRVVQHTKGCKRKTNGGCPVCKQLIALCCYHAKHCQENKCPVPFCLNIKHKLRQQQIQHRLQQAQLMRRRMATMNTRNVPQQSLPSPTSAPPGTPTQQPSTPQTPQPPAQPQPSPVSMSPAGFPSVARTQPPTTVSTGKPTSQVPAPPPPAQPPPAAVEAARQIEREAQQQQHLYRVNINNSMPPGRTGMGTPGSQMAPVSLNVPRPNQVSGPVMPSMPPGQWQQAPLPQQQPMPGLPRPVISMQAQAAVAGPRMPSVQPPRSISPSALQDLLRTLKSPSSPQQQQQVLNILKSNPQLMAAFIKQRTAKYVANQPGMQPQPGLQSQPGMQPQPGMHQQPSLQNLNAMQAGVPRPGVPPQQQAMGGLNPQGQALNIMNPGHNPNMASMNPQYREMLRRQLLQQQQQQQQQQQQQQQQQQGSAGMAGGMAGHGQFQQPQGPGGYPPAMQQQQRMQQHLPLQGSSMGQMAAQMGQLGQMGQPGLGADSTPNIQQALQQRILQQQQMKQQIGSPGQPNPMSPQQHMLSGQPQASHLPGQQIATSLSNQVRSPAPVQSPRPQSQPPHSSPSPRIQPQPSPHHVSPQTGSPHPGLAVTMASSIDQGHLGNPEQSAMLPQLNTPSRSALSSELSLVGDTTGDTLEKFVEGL
UniProt Q92830: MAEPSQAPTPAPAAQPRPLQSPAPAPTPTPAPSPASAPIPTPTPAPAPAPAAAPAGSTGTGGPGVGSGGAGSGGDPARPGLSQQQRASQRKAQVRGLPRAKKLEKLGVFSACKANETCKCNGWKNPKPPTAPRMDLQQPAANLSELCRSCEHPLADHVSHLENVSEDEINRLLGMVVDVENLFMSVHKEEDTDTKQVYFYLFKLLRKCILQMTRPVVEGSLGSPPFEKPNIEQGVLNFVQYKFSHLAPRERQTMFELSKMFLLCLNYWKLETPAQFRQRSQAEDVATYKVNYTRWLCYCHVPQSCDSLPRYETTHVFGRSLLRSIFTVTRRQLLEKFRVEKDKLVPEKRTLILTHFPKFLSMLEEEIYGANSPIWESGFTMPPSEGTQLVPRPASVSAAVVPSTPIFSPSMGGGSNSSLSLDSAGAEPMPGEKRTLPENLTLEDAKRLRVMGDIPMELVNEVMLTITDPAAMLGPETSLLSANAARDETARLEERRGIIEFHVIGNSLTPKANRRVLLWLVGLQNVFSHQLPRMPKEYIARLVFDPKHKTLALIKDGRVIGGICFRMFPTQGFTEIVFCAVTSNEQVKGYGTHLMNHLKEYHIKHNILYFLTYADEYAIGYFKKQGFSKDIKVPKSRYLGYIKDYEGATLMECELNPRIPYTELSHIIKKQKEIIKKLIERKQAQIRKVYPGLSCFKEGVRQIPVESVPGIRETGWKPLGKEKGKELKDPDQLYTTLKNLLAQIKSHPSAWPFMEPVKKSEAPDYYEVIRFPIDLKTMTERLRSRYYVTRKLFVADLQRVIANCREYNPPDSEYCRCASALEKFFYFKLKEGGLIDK
UniProt Q92831: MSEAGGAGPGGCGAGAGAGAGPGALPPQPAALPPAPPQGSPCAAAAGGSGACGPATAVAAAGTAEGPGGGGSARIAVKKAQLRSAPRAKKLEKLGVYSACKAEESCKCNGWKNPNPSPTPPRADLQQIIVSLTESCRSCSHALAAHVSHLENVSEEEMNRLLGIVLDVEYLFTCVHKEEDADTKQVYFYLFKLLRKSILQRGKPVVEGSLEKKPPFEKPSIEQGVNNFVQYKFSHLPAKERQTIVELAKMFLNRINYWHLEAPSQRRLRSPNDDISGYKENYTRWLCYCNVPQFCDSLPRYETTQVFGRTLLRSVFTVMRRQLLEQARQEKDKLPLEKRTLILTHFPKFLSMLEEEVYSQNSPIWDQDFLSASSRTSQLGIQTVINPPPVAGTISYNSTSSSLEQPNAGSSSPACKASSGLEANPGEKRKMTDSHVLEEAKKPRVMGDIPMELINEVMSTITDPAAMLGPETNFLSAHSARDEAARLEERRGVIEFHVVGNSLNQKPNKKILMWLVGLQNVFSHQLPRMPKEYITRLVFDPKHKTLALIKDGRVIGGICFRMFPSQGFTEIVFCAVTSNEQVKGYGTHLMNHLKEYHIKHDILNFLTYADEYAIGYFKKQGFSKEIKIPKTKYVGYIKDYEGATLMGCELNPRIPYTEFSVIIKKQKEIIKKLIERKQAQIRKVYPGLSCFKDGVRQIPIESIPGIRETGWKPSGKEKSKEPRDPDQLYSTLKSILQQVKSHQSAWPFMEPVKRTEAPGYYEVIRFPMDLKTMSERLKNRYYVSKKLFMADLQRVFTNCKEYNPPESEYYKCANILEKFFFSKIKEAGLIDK
UniProt Q92993: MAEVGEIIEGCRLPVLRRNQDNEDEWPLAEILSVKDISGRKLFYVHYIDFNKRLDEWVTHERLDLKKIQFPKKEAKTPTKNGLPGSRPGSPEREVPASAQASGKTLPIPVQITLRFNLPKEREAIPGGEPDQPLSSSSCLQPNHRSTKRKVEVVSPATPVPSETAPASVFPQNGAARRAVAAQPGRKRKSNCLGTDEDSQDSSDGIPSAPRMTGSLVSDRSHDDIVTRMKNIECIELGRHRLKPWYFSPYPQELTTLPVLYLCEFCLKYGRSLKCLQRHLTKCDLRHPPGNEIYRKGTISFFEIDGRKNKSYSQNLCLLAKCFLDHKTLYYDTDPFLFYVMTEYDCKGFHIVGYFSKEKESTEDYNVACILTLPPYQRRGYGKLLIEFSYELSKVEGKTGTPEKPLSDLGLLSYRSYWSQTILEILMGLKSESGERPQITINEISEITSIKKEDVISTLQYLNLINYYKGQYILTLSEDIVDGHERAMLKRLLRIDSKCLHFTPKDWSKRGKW

These are yes or no findings as the source states them, for the method shown. Binding seen in cells or lysates may run through a third protein. Some binding calls cover weakened binding; strength is not graded here.

In assay [1] the target is endogenous ENO2 (enolase 2) (human (endogenous in Colo357)) (UniProt P09104). Put plainly: co-IP; Colo357 cells, both proteins endogenous; ENO2 immunopurified with ENO2 antibody and Protein A beads in NP-40 buffer; western blot for HDAC3. On the technique in general: Immunoblotting shows a protein as a band on a membrane.
Assay [2] has as its target Flag-tagged ENO2 (enolase 2), wild type (UniProt P09104). Put plainly: co-IP; HEK293T cells co-expressing Flag-ENO2 and a Myc- or HA-tagged enzyme; lysis in NP-40 buffer (50 mM Tris-HCl pH 7.4, 150 mM NaCl, 0.5% NP-40); M2 anti-Flag agarose beads 3-5 h at 4 °C; western blot.
Assay [3] concerns the target endogenous ENO2 (enolase 2) (human (endogenous in Colo357)) (UniProt P09104). Put plainly: co-IP; Myc-tagged PCAF and endogenous ENO2 in PDAC cells; IP and western blot; which of the two was precipitated is not told.

As to “endogenous HDAC3 (histone deacetylase 3) (from UniProt O15379 1-428) (enzyme)”, the binding entry in assay [1] is on record as “binds”.

As for “HA-tagged CBP (from UniProt Q92793 1-2442) (enzyme)”, the binding result in assay [2] was “no binding”.

Consider “Myc-tagged GCN5 (from UniProt Q92830 1-837) (enzyme)”, for which, in assay [2], the binding entry is given as “no binding”.

As for “HA-tagged HDAC3 (histone deacetylase 3), wild type (from UniProt O15379 1-428) (enzyme)”, in assay [2], the binding entry is on record as “binds”.

For the substance “Myc-tagged PCAF expressed in PDAC cells (from UniProt Q92831 1-832) (enzyme)”, in assay [3], the binding result is listed as “binds”.

As to “HA-tagged P300 (from UniProt Q09472 1-2414) (enzyme)”, in assay [2], the binding entry was “no binding”.

Regarding “Myc-tagged PCAF (P300/CBP-associated factor) (from UniProt Q92831 1-832) (enzyme)”, the binding result in assay [2] is given as “binds”.

With “HA-tagged TIP60 (from UniProt Q92993 1-513) (enzyme)”, the binding result in assay [2] is listed as “no binding”.
